# In all, about 380,000 compounds went through this assay and about 4,000 (1.1%) were called active. Inconclusive means that the source gave no clear call. Such entries were picked first, then a sample of the others. Calls come from the whole dose curve; as a rule, active = well fitted activation curve with a large enough effect; inconclusive = small, poorly fitted or top-dose-only effect; inactive = no such curve, though single readings can be large or run the other way. Potencies of inconclusive entries are doubtful fits and often do not repeat.
# Test: qHTS Assay to Identify Small Molecule Activators of BRCA1 Expression; note: nearly all actives have a fitted effect of over 80% in size
# Conditions: MCF7-BRCA1-FFLuc reporter, luminescence, 48 h; activation: at 46.1 µM (top of the series), scaled: vehicle 0%, 10 µM genistein 100% unless noted
# Procedure, shortened: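 Activators of BRCA1 expression were detected as increased firefly luciferase luminescence in engineered MCF7 cells after 48 h compound incubation. Signals were scaled to genistein 10 microM as full activation.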
# Potency is the fitted concentration of half-maximal effect; tags give direction and shape of the fitted curve.
SMILES,activation,Potency
O=C(Nc1ncc([N+](=O)[O-])s1)c1ccc2c(c1)OCO2,inconclusive: -94% [activator],–
COc1ccc(Oc2ncnc3sccc23)cc1,–,"inconclusive: 15.8 µM [activator, partial curve, poor fit]"
Cc1cccc(N2CCN(C(=O)CCCOc3ccccc3)CC2)c1C,–,"inconclusive: 2.51 µM [activator, full curve, poor fit]"
O=c1cc(-c2ccccc2)oc2ccc(O)cc12,–,active: 2.82 µM
COc1ccc(/C(C)=N/NS(=O)(=O)c2cc(C)ccc2C)c(OC)c1,inactive: -10%,–
Fc1ccc(OCc2nc3ccccc3s2)cc1,–,"inconclusive: 12.6 µM [activator, partial curve, poor fit]"
Cc1ccccc1OCc1nc(-c2ccc(NC(=O)c3cccs3)cc2)no1,–,"inconclusive: 11.2 µM [activator, partial curve, poor fit]"
CCOc1cccc(C(=O)Nc2nccs2)c1,–,"inconclusive: 14.1 µM [activator, partial curve, poor fit]"
Cc1ccc(C(=O)Nc2ccc3nc(C)sc3c2)o1,–,"inconclusive: 11.2 µM [activator, partial curve, poor fit]"
O=C(Oc1cccc(/C=N/NC(=O)c2ccccn2)c1)c1ccc([N+](=O)[O-])cc1,–,"inconclusive: 31.6 µM [activator, single point]"
O=C(N/N=C/c1ccsc1)c1ccc2c(c1)OCO2,–,"inconclusive: 7.08 µM [activator, full curve, poor fit]"
CC(C)c1nnc(NC(=O)c2cc3ccccc3o2)s1,–,"inconclusive: 2.24 µM [activator, partial curve, poor fit]"
CN(C)C(=S)Nc1cccc(C(F)(F)F)c1,inactive: 3.1%,–
CC(=O)Nc1cccc(C(=O)OCC(=O)c2ccc3c(c2)OCO3)c1,inconclusive: 69.6% [activator],–
O=C(NCCC(NS(=O)(=O)OCC(Cl)(Cl)Cl)c1ccccc1)C(F)(F)F (stereo not given),inactive: -17%,–
CCc1ccc(Oc2coc3cc(O)ccc3c2=O)cc1,–,"inconclusive: 17.8 µM [activator, partial curve, poor fit]"
C=CCc1c(C)nc2c(-c3ccccc3)cnn2c1N1CCOCC1,–,active: 2.24 µM
CCOC(=O)N1CCN(C(=O)c2ccc3c(c2)NC(=O)/C(=C\c2ccc(OC)c(OC)c2)S3)CC1,inactive: -41.7%,–
CCn1c(C)nc2cc(C(=O)NNC(=S)Nc3ccc(F)cc3)ccc21,–,active: 10 µM
CCOC(=O)c1sc2nc3c(cc2c1N)COC(C)(C)C3,–,"inconclusive: 2.24 µM [activator, partial curve, poor fit]"
COCCCNC(=S)N/N=C/c1ccc2ccccc2c1,inactive: -17.3%,–
COc1ccc(-c2csc(-c3ccccc3)n2)c(OC)c1,–,"inconclusive: 2.24 µM [activator, full curve, poor fit]"
COc1cccc(CNc2ccc(Br)cn2)c1O,–,"inconclusive: 1 µM [activator, full curve, poor fit]"
O=C(Nc1ccc(NC(=O)c2cccs2)cc1Cl)c1ccco1,–,"inconclusive: 11.2 µM [activator, partial curve, poor fit]"
CCCC(=O)Nc1ccc2oc(-c3ccncc3)nc2c1,–,"inconclusive: 20 µM [activator, partial curve, poor fit]"

SMILES,activation,Potency
COc1cccc(/C=N/Nc2nc3ccccc3[nH]2)c1OC,–,active: 7.94 µM
Clc1cccc(CSc2ccc(-c3ccco3)nn2)c1,inactive: 61.6%,–
COc1ccc(C(=O)Nc2cc(OC)nc(OC)n2)cc1,–,"inconclusive: 1.26 µM [activator, partial curve, poor fit]"
Cc1ccc(C(=O)N2CCN(c3ccccc3)CC2)cc1S(=O)(=O)N1CCCC1,inactive: -39.9%,–
Cc1ccc(Nc2nc(N)nc(CSc3nccn3C)n2)cc1,–,"inconclusive: 1.58 µM [activator, partial curve, poor fit]"
O=C(Nc1ccc(N2CCOCC2)cc1)c1cccc2c(-c3ccc(F)c(F)c3)coc12,–,"inconclusive: 11.2 µM [activator, partial curve, poor fit]"
N/C(=N\OC(=O)CCC1CCCCC1)c1ccc([N+](=O)[O-])cc1,–,"inconclusive: 35.5 µM [activator, single point]"
Cc1nc2ccc(N)cc2c(=O)n1Cc1ccc(Cl)cc1,–,"inconclusive: 3.16 µM [activator, partial curve, poor fit]"
Cc1ccc(-n2nnc3ccccc3c2=O)cc1C,–,active: 4.47 µM
CCC1CCCCN1C(=O)c1cc(-c2ccc(Cl)c(Cl)c2)on1 (stereo not given),–,active: 11.2 µM
Nc1ccc(NC(=O)c2cccs2)c(Cl)c1,–,"inconclusive: 35.5 µM [activator, single point]"
Cc1ccc(Nc2nc(CSc3n[nH]c(N)n3)cs2)cc1,–,"inconclusive: 2.51 µM [activator, partial curve, poor fit]"
Cc1ccc2nc(NC(=O)CN3CCOCC3)sc2c1,–,active: 3.55 µM
O=C(Nc1nc(-c2ccccn2)cs1)c1ccc2c(c1)OCCO2,inactive: 4.96%,–
Cc1ccc(NC(=O)N2CCc3ccccc3C2)c(C)c1,–,"inconclusive: 17.8 µM [activator, partial curve, poor fit]"
O=C(NC(c1ccc(-c2ccccc2)cc1)c1cnccn1)C1CCN(Cc2ccc(Oc3ccccc3)cc2)CC1 (stereo not given),inactive: -62.8%,–
CN1CCC/C1=C1/C(=O)N(c2ccccc2)N=C1NC(=O)Nc1cccc(Cl)c1,inactive: 2.74%,–
CCC(C)NC(=S)Nc1ccc2nc(N3CCOCC3)cc(C)c2c1 (stereo not given),inactive: -2.47%,–
COCCN(C(=O)C1CC1)c1nnc(-c2cccc(C)c2)s1,–,"inconclusive: 17.8 µM [activator, single point]"
O=C1COc2ccc(-c3csc(NCCc4ccccc4)n3)cc2N1,–,"inconclusive: 22.4 µM [activator, single point]"
c1ccc(OCCSc2nnc3sc4ccccc4n23)cc1,inconclusive: -66.4% [activator],–
COc1cc(C)ccc1OCCSc1nc2ccc(NC(C)=O)cc2s1,inactive: 0%,–
COc1ccc(C(=O)N/N=C/c2ccc(SC)cc2)cc1,inactive: 36.8%,–
O=C1NC(=Nc2ccc(F)cc2)CS1,inactive: 3.51%,–
COc1ccc(OCc2cc(C(=O)N(C)Cc3cc(C4CC4)n[nH]3)no2)c(Cl)c1,–,"inconclusive: 1.78 µM [activator, full curve, poor fit]"

SMILES,activation,Potency
CCC(=O)CCC(=O)c1ccc2ccccc2c1,–,active: 7.08 µM
COc1ccc(-c2cnc3c(-c4ccc(F)cc4)cnn3c2N)cc1,–,"inconclusive: 1 µM [activator, full curve, poor fit]"
Nc1ccc2nc(-c3ccccn3)[nH]c2c1,–,active: 11.2 µM
O=C(C1=NOC2(C1)C(=O)N(Cc1ccccc1)c1ccccc12)N1CCOCC1 (stereo not given),inactive: 2.81%,–
O=C(NCCc1ccccc1)c1ccc(Br)o1,–,active: 7.08 µM
COc1cc(Cl)ccc1OCc1cc(C(=O)N2CCCC(OC)C2)no1 (stereo not given),–,"inconclusive: 11.2 µM [activator, partial curve, poor fit]"
CN(C)S(=O)(=O)c1ccc2oc(SCC(=O)Nc3ccccc3F)nc2c1,–,"inconclusive: 1.58 µM [activator, full curve, poor fit]"
O=C(/C=C/c1ccc(O)cc1)c1ccccc1,–,"inconclusive: 22.4 µM [activator, single point]"
O=C(Nc1ccccc1)Nc1ccc(Cl)nc1Cl,inactive: 2.86%,–
CC1(C)NC(=O)N(CCCOc2ccccc2Br)C1=O,–,"inconclusive: 14.1 µM [activator, partial curve, poor fit]"
O=C(NC1CCCCC1)c1cc(-c2ccccc2O)on1,–,active: 2 µM
CCN(CC)c1ccc(NC(=S)NC(=O)C2CCC2)cc1,–,"inconclusive: 11.2 µM [activator, partial curve, poor fit]"
CCOC(=O)C1(Cc2cccc(OC)c2)CCCN(C(=O)CNC(C)=O)C1 (stereo not given),–,"inconclusive: 12.6 µM [activator, partial curve, poor fit]"
CC(Oc1ccccc1)C(=O)NNC(=O)c1ccccn1 (stereo not given),inactive: -81.5%,–
O=C(NCC(=O)N1CCCCC1)c1ccc2ccccc2c1,–,"inconclusive: 11.2 µM [activator, partial curve, poor fit]"
CCOc1ccc(-c2nc(C#N)c(N3CCN(CC)CC3)o2)cc1,inactive: -8.95%,–
CC(=O)N1CCN(C(=O)C2(NC(=O)Nc3ccccc3Cl)CCCCC2)CC1,inactive: -1.08%,–
O=C(Cc1cccs1)Nc1ccc(-c2nnc(-c3ccco3)o2)cc1,–,"inconclusive: 1.58 µM [activator, partial curve, poor fit]"
COc1ccc(C(=O)/C=C/Nc2ccccn2)c(OC)c1,–,"inconclusive: 0.794 µM [activator, full curve, poor fit]"
CCOc1ccc(NC(=O)CN(C)C(=O)c2ccc(-c3ccc(C(C)=O)cc3)o2)cc1OCC,–,"inconclusive: 11.2 µM [activator, partial curve, poor fit]"
CSc1ccc(/C=N/NC(=O)c2cccc(O)c2)cc1,–,"inconclusive: 2.51 µM [activator, partial curve, poor fit]"
O=C(Nc1nccs1)c1ccc(N2CCOCC2)c([N+](=O)[O-])c1,–,"inconclusive: 2.82 µM [activator, full curve, poor fit]"
CCCc1nnc(NC(=O)Nc2ccccc2OC)s1,–,active: 22.4 µM
N#C/C(=N\Nc1ccc(F)cc1)C(=N)N1CCCCCC1,inconclusive: 65.8% [activator],–
Cc1ccc(SCCCCN2CCNCC2)cc1,inactive: 76.7%,–

# Reference: PubChem BioAssay AID624202 (National Center for Advancing Translational Sciences (NCATS), 2012)
